Inhibition data for 61 compounds are collected here from PubChem BioAssay AID485344 (National Center for Advancing Translational Sciences (NCATS), 2010).

Molecules are shown by their SMILES. About 6,900 (2%) of roughly 340,000 compounds were called active. No stated cut-off is given here; in the data, active means inhibition above about 30%; inactive means below that, where a call was filed. The list shows a part of the results, in another mix than the full data. Entries without a call were filed so in the source.

Sequence of UniProt P14416 (P14416 whole entry, looked up): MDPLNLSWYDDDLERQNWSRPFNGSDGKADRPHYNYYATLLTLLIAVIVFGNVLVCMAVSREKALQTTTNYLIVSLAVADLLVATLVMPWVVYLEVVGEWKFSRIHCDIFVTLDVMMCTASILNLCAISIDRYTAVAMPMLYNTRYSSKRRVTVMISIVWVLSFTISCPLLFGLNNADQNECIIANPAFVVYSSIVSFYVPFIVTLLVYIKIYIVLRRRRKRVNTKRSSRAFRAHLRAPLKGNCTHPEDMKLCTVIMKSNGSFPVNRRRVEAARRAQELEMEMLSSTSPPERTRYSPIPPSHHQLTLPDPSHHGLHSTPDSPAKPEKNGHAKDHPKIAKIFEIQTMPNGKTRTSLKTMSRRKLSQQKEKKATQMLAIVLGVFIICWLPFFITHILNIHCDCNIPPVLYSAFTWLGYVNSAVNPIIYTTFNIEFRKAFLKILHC

The target in this assay is D(2) dopamine receptor (Homo sapiens) (UniProt P14416). Briefly: HTS Assay for Allosteric Antagonists of the Human D2 Dopamine Receptor: Primary Screen for Antagonists. Further: 0% is about no effect. As to conditions: HEK293 TREx D2 cells, calcium flux, dopamine EC80; at 10 µM; stronger effect = higher value. The gist of the method:
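Inhibition of EC80 dopamine-driven calcium flux, recorded kinetically, defines activity here; cells are a tetracycline-induced HEK293 T-REx line expressing force-coupled D2.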
In general terms: Calcium assays in cells follow changes in intracellular calcium, usually with a dye or a luminescent sensor.
For the compound `Cn1c(C(=O)NCc2ccccc2Cl)cc2sc(Cl)cc21`, the inhibition (commonly the relative decrease from the control value, in per cent) is -14.3%.
Take `Cc1ccc(OCCn2c(CNc3ccccc3C)nc3ccccc32)cc1`: the inhibition was 8.7%.
`Cc1cc(NC(=O)c2cnn(-c3ccccc3)c2-n2cccc2)ccc1Br`: the inhibition came out at 11.3%.
As to `O=C(Nc1ccc(F)cc1)c1nc(SCc2ccccc2F)ncc1Cl`, the inhibition came to 12.7%.
Turning to `COc1ccc(-c2nsc(NC(=O)c3oc4ccc(Cl)cc4c3C)n2)cc1`, the inhibition is 5.21%.
As to `CCOc1ccccc1-n1c(N)c(C(=O)OC)c2nc3ccccc3nc21`, the inhibition was found to be 16.8%.
The value for `Cc1cccnc1NC(=O)CSc1ccc2c(c1)OCCO2` was active: 32.1%; that for `N#C/C(=C/c1ccc(O)cc1)c1nc(-c2ccc(-c3ccccc3)cc2)cs1` was 1.86%; that for `Cc1nc(-c2cccc(F)c2)sc1CCNC(=O)Cc1ccc(F)cc1` was 21.5%.
With `CCCSC1=NC2(CCN(C(=O)NC3CCCCC3)CC2)N=C1c1ccc(OC)cc1`, the inhibition was -5.89%.
For `O=c1c2c3c(sc2nnn1CCCCOc1ccc(Cl)cc1)CCCC3`, the inhibition came to 11.5%.
In the case of `COc1cc(-c2noc(-c3cc4cccc(C)c4oc3=O)n2)cc(OC)c1OC`, the inhibition stood at 7.52%.
As to `Brc1cccc(-c2nn(-c3ccccc3)c3c2cnc2cc4c(cc23)OCO4)c1`, the inhibition worked out at 13.3%.
Turning to `CCc1cccc(C)c1NC(=O)C1CCN(S(=O)(=O)c2cc(Br)cc3c2N(C(C)=O)CC3)CC1`, the inhibition was -20.5%.
To `COc1ccc(NC(=O)Nc2cccc(-c3noc(C)n3)c2)cc1` belongs 5.4%; to `COCCn1c(CNC(=O)c2ccccc2C)nc2cccnc21`, 13.2%.
For `COc1cccc(-n2ccnc2SCC(=O)Nc2cccc3ccccc23)c1`, the inhibition worked out at 17.5%.
On to `COc1ccc(-n2c(CC3C(=O)Nc4ccc(C)cc43)nc3ccccc3c2=O)cc1` (stereo unspecified), for which the inhibition is -1.41%.
Turning to `O=C(NCc1ccccc1Cl)c1ccc2c(c1)ncn2-c1cccc(F)c1`, the inhibition was -2.74%.
In the case of `Cc1ccc(CNC(=O)C2CCCN(c3nc4ccccc4n4cccc34)C2)cc1` (stereo unspecified), the inhibition is -17.6%.
Take `COc1ccc(C(C)NC(=O)CN(c2cc(OC)ccc2OC)S(=O)(=O)c2ccccc2)cc1` (stereo unspecified): the inhibition is 6.45%.
With `CC1CCN(CCCNC(=O)CN2C(=O)CSc3ccc(S(=O)(=O)N4CCCCC4)cc32)CC1`, the inhibition amounted to 19.7%.
For the compound `O=S(=O)(Cc1ccccc1)N1CCC(N2CCN(c3ccccc3)CC2)CC1`, the inhibition is active: 88.6%.
`CCCSc1nc2sc3c(c2c(=O)n1-c1ccc(C)cc1)CCCC3`: the inhibition is -3.03%.
Take `Cc1nc([N+](=O)[O-])c(Br)n1CC(=O)c1ccc(F)cc1`: the inhibition is active: 33.6%.
Regarding `CCOC(=O)c1c(S(=O)(=O)NCC(=O)Nc2cccc(SC)c2)c(C)n(C)c1C`, the inhibition is 12.5%.
As for `CN(C)c1ccc(/C=N/NC(=O)C(O)(c2ccccc2)c2ccccc2)o1`, the inhibition is active: 32.6%.
`COc1ccc(NC(=O)CCCS(=O)(=O)c2nc(-c3ccccc3OC)cc(C(F)(F)F)n2)c(OC)c1`: the inhibition was -3.01%.
Turning to `CC1=C(c2ccc(C(C)C)cc2)S(=O)(=O)NC1=NCc1ccc(OC(C)C)cc1`, the inhibition is -15.2%.
Regarding `CCc1ccc(NCc2cc3cc4c(cc3n(CC(=O)Nc3ccc(OC)cc3)c2=O)OCO4)cc1`, the inhibition was -19%.
On to `CCc1ccc(C2c3c(-c4cc(C)ccc4O)n[nH]c3C(=O)N2CCO)cc1` (stereo unspecified), for which the inhibition worked out at 11.5%.
Consider `Cc1ccccc1-c1noc(-c2cccnc2NCc2ccco2)n1`, for which the inhibition amounted to 12.8%.
With `CCOC(=O)c1c(C)[nH]c(C)c1S(=O)(=O)N1CCC(C(=O)N2CCN(c3cccc(Cl)c3)CC2)CC1`, the inhibition was 19.6%.
Consider `O=C(NCc1ccccc1Cl)C1CCCN(S(=O)(=O)c2cccc3nsnc23)C1` (stereo unspecified), for which the inhibition is -2.94%.
For the compound `CC(C)CCN1CCN(Cc2cccc3nonc23)CC1CCO` (stereo unspecified), the inhibition is active: 54.2%.
The value for `COc1ccc(C2=NS(=O)(=O)N(C)C(C(=O)N3CCC(C(N)=O)CC3)=C2)cc1` was active: 35.3%; that for `COc1ccc(OC)c(CNC(=O)c2c3c(nc4ccccc24)C(=O)N(C2CCCCC2)C3)c1` was 9.13%; that for `CCC(=O)N1CCc2cc(Br)cc(S(=O)(=O)N3CCN(c4ccc(C)cc4)C(C)C3)c21` (stereo unspecified) was -12.7%.
Take `C/C(=N\N=C1/SC(CC(=O)O)C(=O)N1c1ccccc1)c1ccc(C)cc1` (stereo unspecified): the inhibition was active: 30.1%.
In the case of `CCOC(=O)c1c(C)[nH]c(C)c1S(=O)(=O)N1CCC(C(=O)N2CCN(c3ccccc3)CC2)CC1`, the inhibition came out at 9.75%.
To `CCCN(CCC)CC(O)Cn1cc(/C=C/C(=O)c2ccc(C)cc2)c2ccccc21` (stereo unspecified) belongs -13.9%.
To `COc1ccc(NC(=O)CN2CCN(Cc3ccc(F)cc3)S2(=O)=O)cc1Cl` belongs 12.9%; to `Cc1ccc(SCCC(=O)NC(C)C)cc1`, active: 32.2%.
For the compound `COc1ccc(NC(=O)c2cc(S(=O)(=O)N3CCCCCC3)cn2C)c(OC)c1`, the inhibition was -12%.
Take `CC(C(=O)NCc1ccc(Cl)cc1)n1ccc2cc(S(=O)(=O)N3CCCCCC3)ccc21` (stereo unspecified): the inhibition was 6.39%.
Turning to `C=Cc1ccc(Cn2c(C(=O)O)c(CNC3CCCC3)c3ccc(C)cc32)cc1`, the inhibition was determined as 11.4%.
Regarding `CN(C)S(=O)(=O)c1ccc2c(c1)N(CC(=O)Nc1ccc(OC(F)(F)F)cc1)C(=O)CS2`, the inhibition is -1.36%.
As for `CCOC(=O)c1c(S(=O)(=O)N2CCC(C(=O)NCc3ccc(F)cc3)CC2)c(C)n(C)c1C`, the inhibition is -10.1%.
Regarding `Cc1cccc(N(C)C(=O)CCS(=O)(=O)c2ccc3c(c2)oc(=O)n3C)c1`, the inhibition was 4.03%.
The value for `COc1ccc(OCC(=O)NC2CC(=O)N(c3cccc(OC)c3)C2)cc1` (stereo unspecified) was -15.5%.
For `CNCCCN1c2ccccc2CCc2ccccc21`, the inhibition was active: 39.1%.
Take `COc1ccccc1CNC(=O)CCn1nc(C)c2c(C)n(-c3ccccc3)nc2c1=O`: the inhibition was -2.27%.
For `O=S(=O)(c1ccccc1)c1nnn2c1nc(NCc1ccc(F)cc1)c1sccc12`, the inhibition is -12.6%.
With `Brc1ccc(-c2nc3ccccn3c2Nc2ccc3c(c2)OCCO3)o1`, the inhibition is -20.3%.
On to `CCCCN(CC)C(=O)CSc1nc2n[nH]c(C)c2c(=N)n1-c1cccc(OC)c1`, for which the inhibition amounted to 13.8%.
`COc1cccc(N2CCN(c3ncnc4c3nc3n4CCCCC3)CC2)c1`: the inhibition was -23.9%.
To `Cc1ccc(-n2c3nc(=O)[nH]c(=O)c-3cc3c(C)nn(-c4ccccc4)c32)cc1Cl` belongs 9.5%.
Take `CCOC(=O)N1CCN(Cc2nc3cc(NC(=O)c4ccccc4[N+](=O)[O-])ccc3n2C(C)C)CC1`: the inhibition was -7.27%.
With `Cc1ccc2c(c1)-c1onc(C(=O)N3CCN(c4ccc(Cl)cc4)CC3)c1CO2`, the inhibition came to 3.62%.
To `O=C(NC1CCCCC1)c1ccc(Cn2c(SCc3ccc(F)cc3)nc3cccnc32)cc1` belongs -6.6%.
The value for `N#CC1=C(c2ccccc2)/C(=C/c2ccccc2)OC1=O` was active: 35.4%.
